{"source": "patent US20240382412A1", "about": "“BIOORTHOGONAL CATALYTIC PATCH AND METHODS OF USING THE SAME” (THE REGENTS THE UNIVERSITY OF CALIFORNIA, priority 2020, published 2024)", "key": {"[1]": {"test": "in vivo toxicity by body weight change after i.p. injection", "design": "species or system mice", "description": "In vivo prodrug activation by PT-MNs for cancer therapy. To evaluate the in vivo tumor inhibition performance by the bioorthogonal PT-MNs/alloc-DOX combination, an anticancer study was undertaken using a B16F10 μmouse melanoma model. First, the ability of PT-MNs 10 to penetrate skin tissue 100 was evidenced by pressing the patch 10 with a gentle force against the skin 100 over the melanoma tumor (FIGS. 36A-36C). It could be seen that the needle 14 matrix swelled into three-dimensional porous networks after removing from mice (FIGS. 37A-37B), such changes in structure could help to alleviate mass transport barriers during the bioorthogonal catalysis. Meanwhile, to decide which the dose of alloc-DOX could be given for treatment, the in vivo toxicity of alloc-DOX was determined by measuring the weight changes of mice and compared with those of mice treated with DOX (FIGS. 38A-38B)."}, "HepG2 cells": {"test_system": "HepG2 cells", "test": "viability of HepG2 cells", "assay_type": "cell-based", "protocol": "Data points represent mean s.d. (n=3).\n(§1) Next, a cell viability assay using B16F10 cells was carried out to study the toxicity profiles of alloc-DOX, DOX and alloc-DOX/PT-MNs 10 combination at different concentrations from 5 nM to 0.2 μmM."}, "[2]": {"test": "drug/prodrug concentrations in tissues versus time", "assay_type": "in vivo, mice", "details": "all tissues after i.p. injection", "protocol": "To gain further insights into these treatment results, the concentrations of drug/prodrug in various tissues, including tumor, plasma, and other major organs, versus time after different treatments were analyzed. […] In comparison with the group treated with DOX, there was more alloc-DOX than DOX in all tissues, which was due to that the dose of prodrug was allowed to be given higher. […] This might be attributed to the three-dimensional configuration of PT-MNs 10 that facilitated the uniform diffusion of the generated DOX within tumors and thereby promote their uptake by cancer cells. The small amount of DOX measured in some tissues might originate from the DOX generated by the part of microneedles 14 that stride between the tumor area and the skin. Collectively, it can be concluded that the accumulation of alloc-DOX inside tumors and its locoregional activation by the bioorthogonal catalytic patch 10 restored the drug's pharmacological property to combat tumors from within while minimizing side toxicity towards distant organs and tissues."}, "4T1 cells": {"test_system": "4T1 cells", "test": "viability of 4T1 cells", "assay_type": "cell-based", "protocol": "as §1"}, "calf thymus DNA": {"test_system": "calf thymus DNA", "test": "fluorescence titration of binding to ctDNA", "details": "fluorescence titration method", "description": "In vitro prodrug activation by PT-MNs."}, "B16F10 cells [3]": {"test_system": "B16F10 cells", "test": "cell viability assay, B16F10 cells", "assay_type": "cell-based, mouse", "protocol": "as §1"}, "B16F10 cells [4]": {"test_system": "B16F10 cells", "test": "Annexin V-APC / SYTOX Green flow cytometry of apoptosis", "assay_type": "cell-based, mouse"}, "[5]": {"test": "catalytic deprotection of alloc-DOX by Pd-TNSs (HPLC)"}, "B16F10 tumor": {"test_system": "B16F10 tumor", "test": "B16F10 mouse melanoma model, antitumor study", "assay_type": "in vivo, mice", "details": "for tumor growth: once every 3 days, 100 mg/kg alloc-DOX, 5 μmg/kg DOX i.p.", "protocol": "Next, B16F10 tumor-bearing mice were randomly divided into five groups and treated with alloc-DOX/PT-MNs 10 combination, DOX, alloc-DOX, PT-MNs 10 (without prodrug) and PBS, respectively, once every 3 days. DOX, alloc-DOX and PBS were administered by i.p. injection. Before starting injection of prodrugs, PT-MNs 10 were inserted into the tumor site from the surface skin and fixed there for one (1) hour to allow the needles 14 to swell thoroughly. Bioluminescence imaging and tumor volumes were recorded to visualize tumor growth and evaluate the therapy efficiency (FIG. 6A)."}, "B16F10 cells [6]": {"test_system": "B16F10 cells", "test": "TUNEL assay in cell culture", "assay_type": "cell-based, mouse"}}, "note": "Like-named read-outs stand apart in the source and are kept apart here.", "data": [{"smiles": "C=CCOC(=O)N[C@H]1C[C@H](O[C@H]2C[C@](O)(C(=O)CO)Cc3c(O)c4c(c(O)c32)C(=O)c2c(OC)cccc2C4=O)O[C@@H](C)[C@H]1O", "note": "[alloc-DOX, N-(allyloxycarbonyl) doxorubicin]", "values": [{"measurement": "body weight changes", "setting": "[1]; i.p. every 3 days, dose 150 μmg/kg", "result": "≤ 10", "unit": "%"}, {"measurement": "weight loss", "setting": "[1]; i.p. up to 150 μmg/kg every three days", "result": "~7.7", "unit": "%"}, {"measurement": "IC50", "setting": "HepG2 cells", "result": "~9.08", "unit": "µM"}, {"measurement": "times less toxic than DOX", "setting": "HepG2 cells; from IC50", "result": "about 27 times"}, {"measurement": "DOX detected in tissues", "setting": "[2]", "result": "no DOX was detected"}, {"measurement": "IC50", "setting": "4T1 cells", "result": "~8.06", "unit": "µM"}, {"measurement": "times less toxic than DOX", "setting": "4T1 cells; from IC50", "result": "around 37 times"}, {"measurement": "binding constant K toward ctDNA", "setting": "calf thymus DNA", "result": 79600, "unit": "M⁻¹"}, {"measurement": "IC50", "setting": "B16F10 cells [3]", "result": 9.29, "unit": "µM"}, {"measurement": "times less toxic than DOX", "setting": "B16F10 cells [3]; from IC50", "result": "~120", "unit": "times"}, {"measurement": "apoptotic cell death", "setting": "B16F10 cells [4]; flow cytometry", "result": "no significant apoptotic cell death"}, {"measurement": "yield of DOX from alloc-DOX", "setting": "[5]; reaction mixture with Pd-TNSs after 24 h", "result": "~81.6", "unit": "%"}, {"measurement": "yield of DOX from alloc-DOX", "setting": "[5]; reaction mixture without Pd-TNSs", "result": 0, "unit": "%"}, {"measurement": "tumor growth", "setting": "B16F10 tumor", "result": "no delayed tumor growth"}]}, {"smiles": "COc1cccc2c1C(=O)c1c(O)c3c(c(O)c1C2=O)C[C@@](O)(C(=O)CO)C[C@@H]3O[C@H]1C[C@H](N)[C@H](O)[C@H](C)O1", "note": "[DOX, Doxorubicin]", "values": [{"measurement": "time of death", "setting": "[1]; 10 μmg/kg i.p. every 3 days", "result": "fourteenth day"}, {"measurement": "time of death", "setting": "[1]; 15 μmg/kg i.p. every 3 days", "result": "seventh day"}, {"measurement": "IC50", "setting": "HepG2 cells; Homo sapiens", "result": 0.34, "unit": "µM"}, {"measurement": "apoptotic DNA fragmentation (TUNEL)", "setting": "B16F10 cells [6]", "result": "extensive apoptotic DNA fragmentation"}, {"measurement": "IC50", "setting": "4T1 cells; Mus musculus", "result": 0.22, "unit": "µM"}, {"measurement": "binding constant K toward ctDNA", "setting": "calf thymus DNA", "result": 936000, "unit": "M⁻¹"}, {"measurement": "IC50", "setting": "B16F10 cells [3]; Mus musculus, B16-F10", "result": 0.08, "unit": "µM"}, {"measurement": "proportion of cell population Annexin V-APC positive", "setting": "B16F10 cells [4]; 12 h", "result": 64.2, "unit": "%"}, {"measurement": "tumor growth", "setting": "B16F10 tumor", "result": "Moderate inhibitory outcome"}, {"measurement": "TUNEL assay in tumor tissue", "setting": "B16F10 tumor; tumor sections", "result": "apoptotic signals"}]}]}
